Experimental data published in PubChem BioAssay AID2094 (Broad Institute, 2009).
Among all 300,000 compounds or so, about 1,200 (0.4%) were called active. Inconclusive results, whose numbers are uncertain, are shown with a selection of clear calls. Rule as the data show it: active = activity change below about -75% (passing the limit was not always enough); inconclusive = no clear call, values can overlap the other calls.

Assay: Vibrio harveyi AI-2 quorum sensing modulators, primary screen, JMH597 strain, luminescence/OD600 ratio (AID 2094);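 also: luminescence divided by OD600 gain over 9 h not by final OD600 alone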
Details: Vibrio harveyi JMH597 AI-2 luminescence/OD600 ratio, 9 h; at 7.5 µM; stronger effect = lower value; 0 = neutral-control median; strain lacks LuxN and CqsS sensors
With O=C(NCc1ccc(F)cc1)Nc1ccc(Cl)cc1 the activity change was inconclusive: -68.6%.
With O=C(CNC(=S)NC(=O)c1ccccc1Br)c1ccccc1 the activity change was inactive: 3.21%.
With C=CC[C@H]1CC(Cc2ccccc2)=C[C@H](CC=C)N1 the activity change was inactive: 15.4%.
In the case of C#CCSC1=C(C#N)C(c2cccs2)C(C(=O)OCC)=C(C)N1 (configuration not stated), the activity change is reported as inactive: -0.569%.
For Fc1ccc(CNC(=S)Nc2cccc(Cl)c2)cc1, the activity change was inconclusive: -75.8%.
With CCCCN(CCCC)CP(=O)(c1ccccc1)c1ccccc1 the activity change was inactive: 6.67%.
For O=C(N/N=C/c1c[nH]c2ccccc12)c1cc(-c2ccc3ccccc3c2)n[nH]1, the activity change was active: -78.7%.
In the case of COC(=O)Nc1ccc(S(=O)(=O)N2CCN(C)CC2)cc1, the activity change is reported as inconclusive: -396%.
With O=C(C#Cc1ccccc1)Nc1ccc(F)cc1 the activity change was inconclusive: -77.5%.
For CC(C)(C)C1=CC=C(C(C)(C)C)C(=O)C1=O, the activity change was inactive: 8.73%.
For COc1cccc(/C=N/Nc2nccnc2Cl)c1O, the activity change was inconclusive: -71.7%.
In the case of CCN1C(=NCCCCO)N[C@@H](c2cccc(F)c2)C(C(=O)OC)=C1C, the activity change is reported as inconclusive: -39.7%.
For CC(C)(C)c1ccc(CN2C(=O)c3ccccc3S2(=O)=O)cc1, the activity change was inactive: 21.7%.
With O=[N+]([O-])c1ccc(/C=C/C2=NN(c3ccccc3)C(c3ccco3)C2)o1 (configuration not stated) the activity change was inconclusive: -75.9%.
In the case of CN1CCN(C(c2ccc(Cl)cc2)c2cc(Cl)c3cccnc3c2O)CC1 (configuration not stated), the activity change is reported as active: -122%.
In the case of Clc1ccc(CON/C=N/c2ncnc3sccc23)c(Cl)c1, the activity change is reported as active: -94.8%.
For COc1ccc(C2CC3(CC(C)(C)NC(SC)=N3)Oc3cc(O)cc(C)c32)cc1 (configuration not stated), the activity change was inactive: 15.1%.
With O=C(NNS(=O)(=O)c1ccc(Cl)cc1)c1ccc(S(=O)(=O)N2CCCCC2)cc1 the activity change was active: -97.3%.
In the case of Cc1ccc(N2CC(C(=O)N3CCCCC3)CC2=O)cc1C (configuration not stated), the activity change is reported as inactive: 21.6%.
For Cc1cc(OCC(=O)NCCc2c[nH]c3ccccc23)c2c(C)cc(=O)oc2c1, the activity change was inactive: 19.7%.
With O=[N+]([O-])c1ccc(OCCn2cnc3ccccc32)cc1 the activity change was inconclusive: -67.8%.
With CCOC(=O)c1nnn(-c2nonc2N)c1CN1CCCCCC1 the activity change was inactive: 21.6%.
For O=C(COC(=O)c1ccc(Cl)nc1)Nc1ccc(S(=O)(=O)N2CCCC2)cc1, the activity change was inconclusive: -73.3%.
With O=C(Cc1nc2ccccc2[nH]1)c1ccc([N+](=O)[O-])cc1 the activity change was inactive: 54.3%.
In the case of O=c1c(Cl)c(Cl)cnn1Cc1nnc(-c2ccc(Cl)cc2)o1, the activity change is reported as active: -91.4%.
With NC(=O)CC[C@H](NC(=O)c1ccc(F)cc1)C(=O)OCC(=O)Nc1ccc(N2CCOCC2)cc1 the activity change was inactive: 10.4%.
For Cc1ccc(NS(=O)(=O)c2cc(C(=O)N3CCN(C)CC3)ccc2C)cc1C, the activity change was inactive: 2.08%.
With CS(=O)(=O)c1ncc(Cl)c(C(=O)Nc2ccc(OC(F)F)cc2)n1 the activity change was inconclusive: -132%.
In the case of CCC1(c2ccccc2)NC(=O)N(CC(=O)Nc2ccc3c(c2)OCO3)C1=O (configuration not stated), the activity change is reported as active: -93%.
With CCCc1ccc(Oc2cn[nH]c2-c2ccc(O)cc2O)cc1 the activity change was inconclusive: -42%.
For Cc1cc(C(=O)N2CCN(c3cccc(Cl)c3)CC2)c(C)o1, the activity change was inconclusive: -229%.
In the case of CC(C)NC(=O)c1ccc(COc2ccc(C(C)(C)C)cc2)o1, the activity change is reported as inactive: -1.77%.
For COc1ccc(/C(N)=N/OC(=O)Cc2ccccc2)cc1, the activity change was active: -87.5%.
For N/C(Cc1ccc(Cl)cc1)=N\OC(=O)Cc1ccc([N+](=O)[O-])cc1, the activity change was inconclusive: -72.1%.
In the case of N#Cc1ccc(CSc2nnc(-c3cccnc3)o2)cc1, the activity change is reported as inconclusive: -65.6%.
For CCc1ccc(C(C)NC(=O)C2(C)CC2(Br)Br)cc1 (configuration not stated), the activity change was inactive: -3.7%.
With O=C(COC(=O)C1(c2ccccc2F)CCCC1)NC1CCS(=O)(=O)C1 (configuration not stated) the activity change was inconclusive: -191%.
For COC(=O)/C=C/C(=O)Nc1cccc(C(F)(F)F)c1, the activity change was active: -89.1%.
For COC(=O)c1cccc(NC(=S)NCc2ccc(Cl)cc2)c1, the activity change was active: -83%.
In the case of COc1ccc(CNC(=O)Nc2ccccc2)cc1, the activity change is reported as active: -88.5%.
For NS(=O)(=O)c1cccc(NC(=O)c2cccnc2Oc2ccccc2)c1, the activity change was inactive: 18.2%.
For Clc1ccc(-c2noc(COc3ccccc3)n2)cc1, the activity change was inconclusive: -73.9%.
In the case of Cc1ccc(OCc2nc(-c3ccccn3)no2)cc1, the activity change is reported as inconclusive: -69.9%.
For COC(=O)CCCC1=CC2=CC(=O)C(C)(OC(=O)c3cccs3)C(=O)C2=CN1CCN1CCOCC1 (configuration not stated), the activity change was inactive: 43.1%.
In the case of CC(=O)c1ccc(NS(=O)(=O)c2ccccc2)cc1, the activity change is reported as inactive: 22.4%.
For COc1ccc(CCNC(=O)CSc2nc(C)nc3c2c(=O)n(C)c(=O)n3C)cc1OC, the activity change was inactive: 15.8%.
In the case of CC1CCc2cc(F)ccc2N1C(=O)CCC(=O)O (configuration not stated), the activity change is reported as inactive: 8.3%.
